# Reference: the supplement of paper PMC4166925
# ± gives the standard deviation of the averaged measurements. In all, about 33,000 sequences were measured (“E-score (dimensionless, -0.5 to 0.5)”: median about -0.046, highest 2% from about 0.36 on). Some of the results follow.
# Tested on: T1, SpTbr T-box DNA-binding domain (GST fusion)
# T1 sequence: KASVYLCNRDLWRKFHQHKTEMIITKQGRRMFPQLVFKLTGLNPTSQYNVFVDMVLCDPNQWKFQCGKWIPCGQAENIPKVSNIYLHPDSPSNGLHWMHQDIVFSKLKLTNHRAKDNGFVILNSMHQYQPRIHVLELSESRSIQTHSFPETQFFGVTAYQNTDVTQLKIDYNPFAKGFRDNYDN
# Assay: PBM E-score of 8-mer (E-score (dimensionless, -0.5 to 0.5)); Tbr is Tbrain of the sea star Patiria miniata (Pm) or the sea urchin Strongylocentrotus purpuratus (Sp); higher = stronger binding preference; most listed sequences are background and not binding sites
# Conditions: the construct has about 5 more residues each side
# In short: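 Primer extension turned Universal Agilent oligonucleotide arrays double-stranded. They were incubated with 200 nM protein in PBS (pH 7.5); the protein was a GST-fused Tbr T-box DNA-binding domain expressed in BL21 E. coli at 20 °C and purified on glutathione. Every ungapped 8-mer was scored from the scanned, quantified probe intensities, and the Universal PBM Analysis Suite gave each an enrichment E-score averaged over duplicate arrays.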
row,Sequence,PBM E-score of 8-mer
1,AAGACAGT,0.0283 ± 0.012
2,AGTAGAAG,0.0206 ± 0.039
3,ACAGGGGC,-0.0909 ± 0.019
4,CAGTGGTA,-0.0561 ± 0.052
5,CCCCGAAC,-0.132 ± 0.03
6,GCACCCAC,0.302 ± 0.034
7,AATCTGGG,-0.0125 ± 0.062
8,ATAAGCGG,-0.0929 ± 0.023
9,AAGGGGAA,-0.201 ± 0.055
10,AGCTAGGA,-0.115 ± 0.016
11,AACAGACT,-0.233 ± 0.071
12,ACTAGGAT,-0.2518 ± 0.0023
13,CCCGTACC,0.0296 ± 0.038
14,AAACTGAG,-0.1 ± 0.018
15,AACGATCA,-0.0563 ± 0.006
16,CAGTTAGC,0.151 ± 0.047
17,GTGGCCGA,0.0547 ± 0.071
18,AGCAGGAC,-0.0117 ± 0.031
19,GTGGATTA,-0.0496 ± 0.019
20,CACTCAGA,0.0772 ± 0.046
21,AGTATTTC,-0.217 ± 0.0098
22,GATTCTCC,-0.121 ± 0.055
23,TATGTGGA,0.0114 ± 0.06
24,ATGACCGG,0.0387 ± 0.039
25,CCCCTGAC,-0.122 ± 0.11

row,Sequence,PBM E-score of 8-mer
1,AAACTCGT,0.0488 ± 0.091
2,CCCTTCAA,-0.0939 ± 0.065
3,ACTCGAGC,-0.333 ± 0.077
4,TAGGAGAA,-0.223 ± 0.026
5,AAATCGGT,-0.118 ± 0.0057
6,AACGTTTC,-0.191 ± 0.019
7,CAGTAAAG,-0.119 ± 0.08
8,GGACGACA,0.144 ± 0.043
9,CGCAGAAA,-0.081 ± 0.02
10,GGTAGTGA,0.213 ± 0.071
11,ATTGGCCC,-0.165 ± 0.022
12,CCGCGGAC,0.0516 ± 0.039
13,AACTTAAA,-0.088 ± 0.039
14,ATACTACA,-0.0286 ± 0.013
15,CACCAGCG,0.2487 ± 0.0019
16,AATGAGAG,-0.293 ± 0.063
17,AACACTGT,0.3297 ± 0.0029
18,GACGGAAA,-0.0594 ± 0.066
19,CTTGCCCA,-0.196 ± 0.069
20,AGTCAGTG,0.0623 ± 0.0082
21,AGGAAACC,-0.0492 ± 0.041
22,ACACGGGG,-0.0474 ± 0.022
23,AGCAGCCT,-0.0448 ± 0.072
24,AAATTTCG,-0.129 ± 0.096
25,CCGTAAAA,-0.098 ± 0.007

row,Sequence,PBM E-score of 8-mer
1,GGGTAAAA,-0.318 ± 0.058
2,TCGTCTCA,0.0855 ± 0.066
3,GCATTCGA,-0.109 ± 0.0095
4,CCCCCGCG,-0.138 ± 0.085
5,CAGCAAAA,-0.19 ± 0.1
6,CTCTTACC,-0.252 ± 0.0034
7,CACCAACG,0.188 ± 0.025
8,AAAGCTAC,0.0151 ± 0.032
9,CTCCTCTA,0.1039 ± 0.00011
10,CTTAAAAC,-0.195 ± 0.026
11,CATTAAAG,-0.135 ± 0.015
12,CGCCGGCG,0.1618 ± 0.00064
13,CGCTAGAC,0.0718 ± 0.013
14,AATCGGGT,-0.129 ± 0.062
15,ACAACACC,0.424 ± 0.011
16,GAAGTACC,-0.351 ± 0.049
17,GTCTCGCA,0.256 ± 0.013
18,GGCCCCCC,-0.274 ± 0.021
19,GAAATAGA,-0.169 ± 0.075
20,CAGTCGTA,-0.204 ± 0.044
21,ACATAGGC,-0.0404 ± 0.014
22,CCGATGTA,-0.27 ± 0.043
23,CTTCTACC,-0.18 ± 0.017
24,ATAGCCAC,0.0868 ± 0.081
25,TATAGAAA,-0.286 ± 0.067

row,Sequence,PBM E-score of 8-mer
1,AAAGTACC,-0.222 ± 0.062
2,AGACCGTC,-0.121 ± 0.029
3,CCTCCGCG,0.00477 ± 0.025
4,GTTCGCAA,0.354 ± 0.015
5,AATATCAG,0.0275 ± 0.026
6,ACTATAGT,0.123 ± 0.1
7,CTGCGGGC,-0.0289 ± 0.01
8,CTGCGGCC,-0.274 ± 0.004
9,GCGTCACC,0.327 ± 0.042
10,CAGAAACG,-0.0415 ± 0.054
11,CTGAAATA,-0.0579 ± 0.062
12,AACCTTCC,-0.169 ± 0.048
13,ATCGAAAA,0.0599 ± 0.027
14,AAAGTTTA,-0.03569 ± 0.00033
15,TAATTACA,0.0205 ± 0.0062
16,CGGGCGCA,0.0118 ± 0.04
17,GATGAAAC,-0.101 ± 0.046
18,AAGGCCTG,-0.2793 ± 0.0016
19,AGCGGGGC,-0.0819 ± 0.0051
20,ACCATACG,-0.201 ± 0.029
21,AGCGAATG,-0.0252 ± 0.031
22,GGTTTACA,0.216 ± 0.048
23,AAACATGC,-0.0605 ± 0.018
24,AGTAACGC,0.215 ± 0.011
25,ATTAGCTG,-0.0902 ± 0.0076

row,Sequence,PBM E-score of 8-mer
1,ATCCAAAA,-0.199 ± 0.0023
2,GCTTCAGA,-0.177 ± 0.045
3,CCATAAGA,-0.134 ± 0.088
4,CTCATGAG,-0.197 ± 0.09
5,GAACTAGC,0.0258 ± 0.039
6,CCTAGGCC,-0.0372 ± 0.013
7,AGATTCAG,-0.2384 ± 0.0019
8,CAAAGGGG,-0.0321 ± 0.014
9,AGCCAGCG,-0.0843 ± 0.057
10,CGGAGTGA,0.156 ± 0.0067
11,ACTCTCCT,-0.273 ± 0.084
12,AATGTCAG,0.0267 ± 0.006
13,CAAAGATC,-0.077 ± 0.049
14,ACTCTCTA,-0.104 ± 0.054
15,GCCGACGC,0.139 ± 0.08
16,ACCGGCAA,0.0514 ± 0.024
17,GACGACAC,0.301 ± 0.039
18,CAGATGAA,-0.178 ± 0.024
19,AACAGCCG,0.057 ± 0.052
20,ACAGCATA,-0.105 ± 0.044
21,AGTTTACC,-0.0346 ± 0.0032
22,GCAGCGCA,-0.144 ± 0.065
23,CTTTATCA,0.112 ± 0.1
24,ATGCATCA,0.0819 ± 0.023
25,AAACGCCC,-0.134 ± 0.035

row,Sequence,PBM E-score of 8-mer
1,CACAACTC,0.25 ± 0.0039
2,CAAACAAG,-0.0153 ± 0.01
3,GCATCTCA,0.0109 ± 0.05
4,ATACAAGG,-0.0736 ± 0.053
5,GGAGACAC,0.193 ± 0.045
6,CACTATAC,0.1235 ± 0.00072
7,AATGTGTA,0.207 ± 0.05
8,AGGGACGG,-0.234 ± 0.02
9,CGCCGCGC,0.182 ± 0.05
10,TATCGCAA,0.157 ± 0.034
11,CAGAAGCC,-0.308 ± 0.064
12,GAGTGAAC,0.135 ± 0.004
13,ACTTAACA,0.278 ± 0.007
14,AGCTCACG,0.218 ± 0.011
15,ACAAAGCA,0.0986 ± 0.034
16,CGCTACAC,0.157 ± 0.037
17,ATACCTGC,-0.0105 ± 0.0085
18,ATCGTAAT,-0.054 ± 0.019
19,AGCTAATG,-0.121 ± 0.004
20,CCATTCAA,-0.212 ± 0.025
21,CGAGACAA,-0.0311 ± 0.082
22,ATGTTTTC,-0.113 ± 0.097
23,ATCAAATA,-0.182 ± 0.015
24,GATGTGCA,0.104 ± 0.0087
25,ATGGTTGC,-0.111 ± 0.059

row,Sequence,PBM E-score of 8-mer
1,ATGACGTA,-0.161 ± 0.027
2,CAAGAACG,-0.267 ± 0.011
3,ATCCTAAT,-0.0123 ± 0.069
4,ACCCAGCA,-0.0902 ± 0.02
5,ATCATCTA,0.0151 ± 0.025
6,CCTTGTTC,0.0575 ± 0.0017
7,CACCCAGA,0.0853 ± 0.003
8,CATTGGCG,0.188 ± 0.021
9,ATAGTGAC,0.186 ± 0.035
10,GCAGCGAA,0.104 ± 0.068
11,ATTCTAGG,-0.144 ± 0.065
12,AGGAACAG,-0.0437 ± 0.058
13,CTACAGAC,0.1 ± 0.042
14,CGACCCAA,-0.047 ± 0.0032
15,GAATTGTC,0.114 ± 0.046
16,ATCTGAGG,-0.0695 ± 0.017
17,CTCCCGCC,0.0623 ± 0.0039
18,AGCAGAGG,-0.166 ± 0.026
19,ACGTTCTC,0.154 ± 0.065
20,CGCTTCAC,0.235 ± 0.042
21,GGGGAACA,-0.168 ± 0.05
22,ATACCCGA,-0.0946 ± 0.026
